# ± gives the standard deviation of the averaged measurements. Whole data set: some 1,900 compounds, median “CD40L-induced NF-kB luciferase activity, plate-corrected, relative to DMSO (0) and IKK inhibitor VII (-100) controls” near 0.032, cut for the lowest 2% near -26. The list shows a part of the results.
# Tested on: BL2-NFkB-Luc
# Test: CD40L-induced NF-kB luciferase activity, plate-corrected, relative to DMSO (0) and IKK inhibitor VII (-100) controls (% normalized activity); higher = more NF-kB reporter activity (less inhibition)
# Details: 9.4 µM; stimulus: tCD40L 64 ng/ml; 4.5 h
# Procedure: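 BL2 B cells with a stable NF-kB response-element luciferase reporter (BL2-NFkB-Luc), 384-well. Cells were pre-incubated with compound at 9.4 uM for 1 h at 37 C, then stimulated with 64 ng/ml trimerized CD40L for 4.5 h; luciferase was read with Steady-Glo. Signal was normalised per plate in Genedata (median DMSO neutral control = 0, median IKK inhibitor VII at 50 uM = -100) with Assay Median plate-pattern correction; duplicate plates.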
row,Structure (SMILES),CD40L-induced NF-kB luciferase activity
1,CC(=O)OC(CC(=O)O)C[N+](C)(C)C (stereo unspecified),2.22 ± 3.5
2,CC(=O)c1cc2c(cc1NC(=O)c1ccco1)OCCO2,31.7 ± 9.8
3,CC(C)CCOCC(=O)Nc1cccc(C(=O)O)c1,23.4 ± 1
4,Cc1ccc2[nH]c3c(c2c1)CN(C)CC3,1.91 ± 2.5
5,CCCc1cc(C(N)=S)ccn1,0.433 ± 0.41
6,CC(=O)OCC(=O)[C@@]1(O)CC[C@H]2[C@@H]3CCC4=CC(=O)CC[C@]4(C)[C@H]3[C@@H](O)C[C@@]21C,-31.1 ± 6.7
7,COc1ccc(NC(=O)C2CCCN2C(=O)OC(C)(C)C)cc1 (stereo unspecified),-1.36 ± 0.78
8,CC(=O)Nc1ccc(OS(=O)(=O)c2c(C)cc(C)cc2C)cc1,1.17 ± 2
9,NS(=O)(=O)c1cc(C2(O)NC(=O)c3ccccc32)ccc1Cl (stereo unspecified),0.0805 ± 1.7
10,O=C(NC(=S)Nc1ccc2c(c1)OCCO2)c1ccccc1F,0.234 ± 0.6
11,O=C1C2C3C=CC(C4CC34)C2C(=O)N1N=Cc1ccc(-c2ccc([N+](=O)[O-])cc2)o1 (stereo unspecified),-2.78 ± 3.9
12,O=C(O)CCCCCCCC(=O)O,4.18 ± 3.5
13,O=C(NCc1ccc2c(c1)OCO2)c1ccc2c(c1)OCCO2,19.8 ± 2.2
14,CCCCN(CCCC)CCCOC(=O)c1ccc(N)cc1,7.04 ± 4.1
15,COc1ccc(C(=O)NCC2OCCc3ccccc32)cc1 (stereo unspecified),14.2 ± 3.1
16,CC[N+](C)(C)c1cccc(O)c1,1.9 ± 5.2
17,Cc1ccc(-c2nnc(-c3ccc4c(c3)OCO4)o2)cc1,61 ± 18
18,CN(C)c1ccc(C(CN)c2c[nH]c3ccccc23)cc1 (stereo unspecified),31.86 ± 0.092
19,O=C(NC(=S)Nc1ccc(N2CCN(C(=O)c3ccccc3)CC2)cc1)c1cccs1,0.881 ± 1.6
20,COc1ccc2[nH]c(=O)c3c(c2c1)OC(C)(C)C=C3,-32.8 ± 0.38
21,COc1cc(/C=C/C(=O)O)cc(S(=O)(=O)NCCCO)c1OC,0.101 ± 4
22,O=C(Cc1ccc(Br)cc1)c1ccc(O)cc1O,32.9 ± 18
23,C/C=C/c1ccc(OCCCCN2CC(C)CC(C)C2)c(OC)c1 (stereo unspecified),1.73 ± 0.88

row,Structure (SMILES),CD40L-induced NF-kB luciferase activity
1,CC[N+](C)(CC)CCOC(=O)C(O)(c1ccccc1)C1CCCCC1 (stereo unspecified),-15.3 ± 1.7
2,CCn1cc(CN2N=C(C)CC2c2ccccc2)c(C)n1 (stereo unspecified),2.59 ± 4
3,CCOc1ccccc1Oc1coc2cc(OCC(=O)O)ccc2c1=O,-5.79 ± 5.2
4,O=C1C2CC=C(Cl)CC2C(=O)N1CCc1c[nH]c2ccccc12 (stereo unspecified),4.17 ± 2.5
5,Nc1ccc(-c2nc3ncccc3o2)c(Cl)c1,78.7 ± 4
6,COC(=O)C1=C(C)NC(C)=C([N+](=O)[O-])C1c1ccccc1C(F)(F)F (stereo unspecified),-13.1 ± 0.81
7,CCNC1=C(Cl)C(=O)c2ccccc2C1=O,3.96 ± 1.3
8,COc1c(O)ccc2c1CN1CCc3cc4c(cc3C1C2)OCO4 (stereo unspecified),9.86 ± 12
9,Cc1ccc2c(c1)c1c(n2C)C(=O)CCC1,1.84 ± 0.52
10,CN(C)CCCN1c2ccccc2Sc2ccc(C(F)(F)F)cc21,2.86 ± 7.7
11,CCN(CC)CCOC(=O)C1(C2CCCCC2)CCCCC1,0.032 ± 4.6
12,N#CCC(N)=C(C#N)C#N,0.428 ± 1.6
13,Cc1nc2ccccc2c(=O)n1N,-2.06 ± 4.5
14,COc1ccc(OC)c(-c2oc3ccccc3c(=O)c2O)c1,6.82 ± 0.74
15,Cc1cccc(N2C(=O)C3C(c4ccccc4)OC4(C(=O)c5ccccc5C4=O)C3C2=O)c1 (stereo unspecified),-0.286 ± 0.72
16,CN1CCN(C2=Nc3ccccc3Oc3ccc(Cl)cc32)CC1,-0.724 ± 2.7
17,CCCCCCCCCC(=O)OCC(O)CO (stereo unspecified),-6.78 ± 1.2
18,COc1ccccc1N1C(=O)C2CC(C)=C(C)CC2C1=O (stereo unspecified),-4.81 ± 2.4
19,O=C1C(O)CC2c3ccccc3CC3(CCCC3)N12 (stereo unspecified),2.45 ± 2.2
20,O=C(/C=C/c1ccc(F)cc1)N1CC[C@@]2(O)CCCC[C@H]2C1,-1.13 ± 0.88
21,C[C@@H]1C[C@H]2[C@@H]3C[C@H](F)C4=CC(=O)C=C[C@]4(C)[C@@]3(F)[C@@H](O)C[C@]2(C)[C@@]1(O)C(=O)CO,-27.2 ± 0.89
22,CCOC(=O)C1=C2c3ccc4ccccc4c3CC(C)(C)N2C(=O)C1=O,2.5 ± 3.9
23,O=C(O)Cc1ccc(-c2ccccc2)cc1,1.04 ± 0.49

# Source: the supplement of paper PMC3656093
